One molecule from PMC5394680, “The Cac2 subunit is essential for productive histone binding and nucleosome assembly in CAF-1” (Scientific Reports, 2017) can be followed below.

For test [1], the target named is T1, Cac2 (middle subunit of yeast CAF-1), C-terminal His-tag (yeast, UniProt Q04199).
T1 construct: Cac2, middle subunit of yeast CAF-1, residues 1-449 (short C-terminal deletion to remove a region predicted to be disordered); The limits 1-449 are stated for all complexes; also called Cac2-His; source: SF21 insect cells; purified (in isolation and in complexes); in insect cell lysate for the His-pulldowns; not shown: His-tag, C-terminal, kept
In words: SEC; gel filtration of the purified tCAF-1 sub-complexes (Supplementary Figure 2a). The settings on record: both partners purified. A general note: In gel filtration, larger molecules generally elute earlier.

The target in test [2] is T2, Cac3 (small subunit of yeast CAF-1) (yeast, UniProt P13712).
T2 construct: Cac3, small subunit of yeast CAF-1; source: SF21 insect cells, purified (in isolation and in complexes)
The description is as above. Particulars: both partners purified.

B1: tCac1 (truncated Cac1, […]) (domain or fragment)
chain: not shown
notes: source: SF21 insect cells, co-expressed; purified within tCAF-1 complexes; in insect cell lysate for the His-pulldowns
For B1, the binding result in test [1] and in test [2] was “binds” in each case.
